From PubChem BioAssay AID1199 (EPA DSSTox, 2008)
Not every entry of the source has a single result; some have several. This is not the full list of results. The source may hold further records.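 The calls were made as follows: active = a tumour-causing dose and a tumour site recorded for mice in at least one sex group; inconclusive = only government mouse studies exist and were judged inadequate; inactive = mouse studies exist but none gave tumours.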 Results that share an entry are repeats (runs, samples, wells, individuals or studies). Records carry a tag for their origin. Letters count within one entry.

Test system: mouse carcinogenicity bioassay, TD50 from CPDB
Test: DSSTox (CPDBAS) Carcinogenic Potency Database Summary Mouse Bioassay Results
Details: TD50_Mouse_Note: no positive results
Text: The Carcinogenic Potency Database (CPDB) is a unique and widely used international resource of the results of over 6500 chronic, long-term animal cancer tests on over 1500 chemical substances. The CPDB provides easy access to the bioassay literature, with qualitative and quantitative analyses of both positive and negative experiments that have been published over the past 50 years in the general literature and by the National Cancer Institute/National Toxicology Program. The CPDB standardizes the diverse literature of cancer bioassays that vary widely in protocol, histopathological examination and nomenclature, and in the published author's choices of what information to provide in their papers. Results are reported in the CPDB for tests in rats, mice, hamsters, dogs, and nonhuman primates, and are based on the most positive result among all experiments for each sex-species. The DSSTox CPDBAS (all species) file incorporates data from the CPDB Summary Tables for the full list of over 1500 chemical substances tested in at least one species. Summary bioassay results for Mouse (TD50, tumor sites, male, female, both sexes) are provided in the CPDB Summary Tables and the DSSTox CPDBAS file for over 1000 chemical substances.
TD50 is a standardized quantitative measure of carcinogenic potency (analogous to an LD50) and is reported in the CPDB Summary Table for each species. […]

SMILES | outcome
CC(=O)O[C@]1(C(C)=O)CC[C@H]2[C@@H]3C=C(Cl)C4=CC(=O)CC[C@]4(C)[C@H]3CC[C@@]21C | inactive [sample A] and inactive; no positive results [sample B]
C#C[C@]1(OC(C)=O)CC[C@H]2[C@@H]3CCC4=C[C@@H](OC(C)=O)CC[C@@H]4[C@H]3CC[C@@]21C | inactive [sample A] and inactive; no positive results [sample B]
